The values that follow come from a collection of fitness landscapes (doi:10.1016/j.celrep.2020.107928).

In all, about 81,000 sequences were measured (“one-hybrid fitness for binding NBS DNA”: median about -0.1, highest 2% from about 0.36 on). The list shows a part of the results. Bounds are passed on as bounds.

To fix the notation:
B1: Caulobacter ParB omega fusion; a variant is named by its letters at X, in order, B8GW30 (parent)
chain: MESVVVGEPGMSEGRRGLGRGLSALLGEVDAAPAQAPGEQLGGSREAPIEILQRNPDQPRRTFREEDLEDLSNSIREKGVLQPILVRPSPDTAGEYQIVAGERAWRAAQRAGLKTVPIMVRELDDLAVLEIGIIENVQRADLNVLEEALSYKVLMEKFERTQENIAQTIGKSXSHVANXMRLLXLPDEVQSYLVSGELTAXHARAIAAAADPVALAKQIIEGGLSVRETEALARKAPNLSAGKSKGGRPPRVKDTDTQALESDLSSVLGLDVSIDHRGSTGTLTITYATLEQLDDLCNRLTRGI

The variants in the assay derive from B1. The experiment in a line: one-hybrid fitness for binding NBS DNA (the Noc-binding site; scaled: cognate 1, non-cognate 0); higher = stronger binding. Conditions: with NBS DNA site. The essentials: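 Fitness here means the log change in variant-to-wild-type read ratio between plasmids sequenced before and after selection. That scale was set so cognate equals 1 and non-cognate equals 0. The selection was a bacterial one-hybrid screen of Caulobacter ParB libraries, four specificity codons randomised, in E. coli USO carrying a HIS3 reporter with the site 19 bp from the promoter, grown 48 hours at 37°C on M9-minus-histidine with 0.1 mM IPTG and 5 mM 3-AT.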
Consider CIAL, for which the “one-hybrid fitness for binding NBS DNA” value is at most 0.2.
As to VHHG, the “one-hybrid fitness for binding NBS DNA” value is at most 0.2.
As to EMKE, the “one-hybrid fitness for binding NBS DNA” value was at most 0.2.
With QTQC, the “one-hybrid fitness for binding NBS DNA” value was determined as 0.239.
RSWR: the “one-hybrid fitness for binding NBS DNA” value amounted to 0.27.
VKWT: the “one-hybrid fitness for binding NBS DNA” value was at most 0.2.
In the case of TYVP, the “one-hybrid fitness for binding NBS DNA” value was at most 0.2.
For WHAC the value was at most 0.2; for GSVV, at most 0.2; for FYDR, at most 0.2.
As to IIRS, the “one-hybrid fitness for binding NBS DNA” value is at most 0.2.
For APPE the value was at most 0.2; for RCEG, at most 0.2; for RHQT, 0.39.
Regarding ETAT, the “one-hybrid fitness for binding NBS DNA” value was at most 0.2.
As to KLLH, the “one-hybrid fitness for binding NBS DNA” value is at most 0.2.
In the case of KRMN, the “one-hybrid fitness for binding NBS DNA” value is at most 0.2.
With AQFS, the “one-hybrid fitness for binding NBS DNA” value was at most 0.2.
Take IRIV: the “one-hybrid fitness for binding NBS DNA” value was at most 0.2.
In the case of AAAK, the “one-hybrid fitness for binding NBS DNA” value is at most 0.2.
Turning to QNKI, the “one-hybrid fitness for binding NBS DNA” value is at most 0.2.
In the case of RCEM, the “one-hybrid fitness for binding NBS DNA” value was at most 0.2.
As for WSAW, the “one-hybrid fitness for binding NBS DNA” value was at most 0.2.
Turning to QIRC, the “one-hybrid fitness for binding NBS DNA” value came to 0.241.
As to NDVS, the “one-hybrid fitness for binding NBS DNA” value was at most 0.2.
With LETT the figure was at most 0.2; with SSPR, at most 0.2.
As for PNAG, the “one-hybrid fitness for binding NBS DNA” value is at most 0.2.
Consider RVMW, for which the “one-hybrid fitness for binding NBS DNA” value is at most 0.2.
As to DFKR, the “one-hybrid fitness for binding NBS DNA” value was at most 0.2.
NYVH: the “one-hybrid fitness for binding NBS DNA” value was at most 0.2.
With GLKI, the “one-hybrid fitness for binding NBS DNA” value is at most 0.2.
As to LQLF, the “one-hybrid fitness for binding NBS DNA” value was at most 0.2.
With NETG the figure was at most 0.2.
Regarding RKTE, the “one-hybrid fitness for binding NBS DNA” value was at most 0.2.
Turning to AKRR, the “one-hybrid fitness for binding NBS DNA” value is at most 0.2.
Regarding VSLA, the “one-hybrid fitness for binding NBS DNA” value is at most 0.2.
LPSY: the “one-hybrid fitness for binding NBS DNA” value is at most 0.2.
Turning to MNRG, the “one-hybrid fitness for binding NBS DNA” value was at most 0.2.
For RHYI the value was at most 0.2; for SLQP, at most 0.2.
With ELLD the figure was at most 0.2; with TCKC, at most 0.2.
Take WHGG: the “one-hybrid fitness for binding NBS DNA” value was at most 0.2.
On to YVHE, for which the “one-hybrid fitness for binding NBS DNA” value is at most 0.2.
In the case of VLEG, the “one-hybrid fitness for binding NBS DNA” value was at most 0.2.
With PWAF, the “one-hybrid fitness for binding NBS DNA” value was at most 0.2.
For TGSV the value was at most 0.2; for KLGW, at most 0.2; for CMVR, at most 0.2.
For the variant TWPN, the “one-hybrid fitness for binding NBS DNA” value is at most 0.2.
For KCPT, the “one-hybrid fitness for binding NBS DNA” value is at most 0.2.
With LHSF the figure was at most 0.2; with NINI, at most 0.2; with FSWE, at most 0.2.
As for QRGA, the “one-hybrid fitness for binding NBS DNA” value is 0.653.
Regarding IIQC, the “one-hybrid fitness for binding NBS DNA” value was at most 0.2.
With PGYL, the “one-hybrid fitness for binding NBS DNA” value was at most 0.2.
For RGQG, the “one-hybrid fitness for binding NBS DNA” value is at most 0.2.
Turning to QAVE, the “one-hybrid fitness for binding NBS DNA” value is at most 0.2.
As to VPRW, the “one-hybrid fitness for binding NBS DNA” value was at most 0.2.
For RTQT the value was 0.537; for VHHV, at most 0.2; for QNNV, at most 0.2.
With PQCL the figure was at most 0.2; with NYRI, at most 0.2; with IYAS, at most 0.2.
In the case of NGMS, the “one-hybrid fitness for binding NBS DNA” value is at most 0.2.
Take GPVC: the “one-hybrid fitness for binding NBS DNA” value is at most 0.2.
On to PNRC, for which the “one-hybrid fitness for binding NBS DNA” value was at most 0.2.
With TTYP, the “one-hybrid fitness for binding NBS DNA” value was at most 0.2.
As for QPET, the “one-hybrid fitness for binding NBS DNA” value was at most 0.2.
Take RNDR: the “one-hybrid fitness for binding NBS DNA” value was at most 0.2.
For KMPN the value was at most 0.2; for ALIM, at most 0.2; for VYVV, at most 0.2.
As to EPCS, the “one-hybrid fitness for binding NBS DNA” value is at most 0.2.
On to DLWS, for which the “one-hybrid fitness for binding NBS DNA” value was at most 0.2.
With VRQS the figure was at most 0.2; with TFTS, at most 0.2; with SVYA, at most 0.2.
For the variant NAGG, the “one-hybrid fitness for binding NBS DNA” value was at most 0.2.
On to CKHG, for which the “one-hybrid fitness for binding NBS DNA” value was at most 0.2.
For AVRS the value was at most 0.2; for AYQC, at most 0.2; for ITLV, at most 0.2.
Turning to QHQM, the “one-hybrid fitness for binding NBS DNA” value was at most 0.2.
Take WFDG: the “one-hybrid fitness for binding NBS DNA” value is at most 0.2.
For RRDD the value was at most 0.2; for VTVC, at most 0.2.
With KPHC the figure was at most 0.2; with HRSW, at most 0.2.
For WMIS the value was at most 0.2.
On to RVLI, for which the “one-hybrid fitness for binding NBS DNA” value is at most 0.2.
In the case of SGMG, the “one-hybrid fitness for binding NBS DNA” value was at most 0.2.
In the case of SAHS, the “one-hybrid fitness for binding NBS DNA” value was at most 0.2.
For the variant GRTA, the “one-hybrid fitness for binding NBS DNA” value is at most 0.2.
As for TDSL, the “one-hybrid fitness for binding NBS DNA” value is at most 0.2.
For KHSS, the “one-hybrid fitness for binding NBS DNA” value was at most 0.2.
For EDTE the value was at most 0.2; for YPPG, at most 0.2; for YHHG, at most 0.2.
For LDKS the value was at most 0.2; for IDVL, at most 0.2; for CTVT, at most 0.2.
Turning to LPML, the “one-hybrid fitness for binding NBS DNA” value was at most 0.2.
For EHVR the value was at most 0.2; for QGTL, at most 0.2; for NMVT, at most 0.2.
Consider KNKV, for which the “one-hybrid fitness for binding NBS DNA” value was at most 0.2.
With TPDC the figure was at most 0.2; with WKKA, at most 0.2; with HHMF, at most 0.2.
Turning to WRSC, the “one-hybrid fitness for binding NBS DNA” value is at most 0.2.
On to QNPQ, for which the “one-hybrid fitness for binding NBS DNA” value was at most 0.2.
With CTTC the figure was at most 0.2; with NCIS, at most 0.2.
In the case of FQHT, the “one-hybrid fitness for binding NBS DNA” value is at most 0.2.
In the case of TEVM, the “one-hybrid fitness for binding NBS DNA” value was at most 0.2.
For VPNS the value was at most 0.2.
For the variant PRHE, the “one-hybrid fitness for binding NBS DNA” value was at most 0.2.
On to SWRD, for which the “one-hybrid fitness for binding NBS DNA” value was at most 0.2.
NDPS: the “one-hybrid fitness for binding NBS DNA” value was at most 0.2.
For ETTD, the “one-hybrid fitness for binding NBS DNA” value was at most 0.2.
As for TRDK, the “one-hybrid fitness for binding NBS DNA” value was at most 0.2.
For INDL, the “one-hybrid fitness for binding NBS DNA” value is at most 0.2.
For TRVT, the “one-hybrid fitness for binding NBS DNA” value was at most 0.2.
With LKTE, the “one-hybrid fitness for binding NBS DNA” value is at most 0.2.
For PYIH the value was at most 0.2.
Take MLRC: the “one-hybrid fitness for binding NBS DNA” value was at most 0.2.
ADLS: the “one-hybrid fitness for binding NBS DNA” value was at most 0.2.
On to HDLI, for which the “one-hybrid fitness for binding NBS DNA” value was at most 0.2.
On to TIWT, for which the “one-hybrid fitness for binding NBS DNA” value was at most 0.2.
As to WNHF, the “one-hybrid fitness for binding NBS DNA” value is at most 0.2.
Regarding HRSQ, the “one-hybrid fitness for binding NBS DNA” value is at most 0.2.
Regarding FTKM, the “one-hybrid fitness for binding NBS DNA” value was at most 0.2.
For RMPP the value was at most 0.2; for QAFL, at most 0.2; for VSRD, at most 0.2.
Consider QKCA, for which the “one-hybrid fitness for binding NBS DNA” value is at most 0.2.
On to APEG, for which the “one-hybrid fitness for binding NBS DNA” value is at most 0.2.
With WTER, the “one-hybrid fitness for binding NBS DNA” value was at most 0.2.
With QFTL, the “one-hybrid fitness for binding NBS DNA” value was at most 0.2.
For VFNC, the “one-hybrid fitness for binding NBS DNA” value is at most 0.2.
With RGDY the figure was at most 0.2; with ACLN, at most 0.2.
On to PFGT, for which the “one-hybrid fitness for binding NBS DNA” value is at most 0.2.
As to LCLW, the “one-hybrid fitness for binding NBS DNA” value is at most 0.2.
In the case of RVFY, the “one-hybrid fitness for binding NBS DNA” value was at most 0.2.
On to FMTG, for which the “one-hybrid fitness for binding NBS DNA” value was at most 0.2.
Regarding WLEL, the “one-hybrid fitness for binding NBS DNA” value is at most 0.2.
For RVIT, the “one-hybrid fitness for binding NBS DNA” value is 0.222.
For AAPD the value was at most 0.2; for LCRP, at most 0.2; for GWKC, at most 0.2.
With ALTR the figure was at most 0.2; with DDCG, at most 0.2; with VAMS, at most 0.2.
Regarding SIGC, the “one-hybrid fitness for binding NBS DNA” value is at most 0.2.
As for WNSS, the “one-hybrid fitness for binding NBS DNA” value was at most 0.2.
For the variant LVNL, the “one-hybrid fitness for binding NBS DNA” value was at most 0.2.
As for QVGH, the “one-hybrid fitness for binding NBS DNA” value was at most 0.2.
Take RHNV: the “one-hybrid fitness for binding NBS DNA” value was at most 0.2.
With GTCT the figure was at most 0.2; with CRAI, at most 0.2.
With DLYG the figure was at most 0.2; with GVMS, at most 0.2; with TLCY, at most 0.2.
Take NSCT: the “one-hybrid fitness for binding NBS DNA” value was at most 0.2.
As to ANLE, the “one-hybrid fitness for binding NBS DNA” value is at most 0.2.
For the variant THPP, the “one-hybrid fitness for binding NBS DNA” value is at most 0.2.
In the case of HRTY, the “one-hybrid fitness for binding NBS DNA” value was at most 0.2.
With PFMC the figure was at most 0.2.
With GAAE, the “one-hybrid fitness for binding NBS DNA” value was at most 0.2.
For GKGN the value was at most 0.2; for LGLP, at most 0.2.
With KCPC the figure was at most 0.2; with GRGS, at most 0.2.
Turning to FKLF, the “one-hybrid fitness for binding NBS DNA” value was at most 0.2.
Consider HPVN, for which the “one-hybrid fitness for binding NBS DNA” value was at most 0.2.
With QCMF, the “one-hybrid fitness for binding NBS DNA” value was at most 0.2.
For CEHG, the “one-hybrid fitness for binding NBS DNA” value was at most 0.2.
With LTSR the figure was at most 0.2.
With FRPN the figure was at most 0.2; with KTAV, at most 0.2.
For PCKA the value was at most 0.2; for QQDE, at most 0.2.
For ITMG, the “one-hybrid fitness for binding NBS DNA” value was at most 0.2.
Regarding IGVG, the “one-hybrid fitness for binding NBS DNA” value is at most 0.2.
SYRA: the “one-hybrid fitness for binding NBS DNA” value is at most 0.2.
With ASNW, the “one-hybrid fitness for binding NBS DNA” value is at most 0.2.
With RQED, the “one-hybrid fitness for binding NBS DNA” value was at most 0.2.
PDPF: the “one-hybrid fitness for binding NBS DNA” value was at most 0.2.
With LIQM the figure was at most 0.2.
RWAI: the “one-hybrid fitness for binding NBS DNA” value was at most 0.2.
